# Data reported in the RNAGym collection of RNA variant scans (doi:10.7554/elife.90254).
# Read counts are not given, so values of variants with three or more changes are uncertain.
# B1: LINE1-full (parent)
# chain: UACGUAGGUGGUUUUCCCCUGAUAGUGCUAAGGGGGCCUGGAAGUUUGGACUGGGCAGAGCUCAACACAGCGUGGCAAAGUGGCUGUGGCUAGACUGCCUCUCUGGAUUCCUCGUCACUCAGCAGGGCAUCUCUGAGAGAAAUGCC
# Variants of: B1
# Test: self-cleavage, relative activity (ratio to wild type); higher = more cleavage; in vitro, sequencing; the parent is a self-cleaving ribozyme
row,Variant,self-cleavage
1,UACGUAGGUGGUUUUCCCCUGAUAGUGCUAAGGGGGCCUGGAAGGUUGGACUGGGCAGAGCUCAACACAGCGUAGCAAAGUGGGUGUGGCUAGACUGCCCCUCUGGAUUCCUCGUCACUCAGCAGGGCAUCUCUGAGAGAAAUGCC,0.07
2,UACGCAGGUGGUUUUCCCCUGAUAGUUCUAAGGGGGCAUGGAAGUUUGGACUGGGCAGAGCUCAACACAGCGCGGCAAAGUGGCUGUGGCUAGACAGCCUCUCUGGAUUCCUCGUCACUCAGCAGGGCGUCUCUGAGAGAAAUGCC,0.09
3,UACGUAGGAGGUUUUCCCCUGAUAGUGCUAAGGGGGCCUGGAAGUUUGGACUGGGCAGAGCUCAACACAGCGUGGCAAAGUGGCUGUGGCUAGACUGCCCCUCUGGAUUCCUCGUCACACAGCAGGGCAUCUCUGAGAGAAGUGCC,1.78
4,UACGUAGGUGGUUUUCCCCUGAUAGUGCUAAGGGGGCCUGGAAGUUCGAACGGGGCAGAGCUCAACACAGCGUGGCAAAGUGGCUGUGGCUAGACUGCCUCUCUGGGUUCCUCGUCACUCAGCAGGGCAUCUCUGAGAGAAAUGCC,1.9
5,UACGUAGGUGGUUUUCCCCAGAUAGUGCUAAGGGGGCCUGGAAGUUCGGACUGGGCAGAGCUCAACACAGCGUGGCAAAGUGGCUGUAGCUAGAUUGCCUCUCUGGAUUCCUCGUCACUCAGCAGGGCAUCUCUGAGAGGAAUGCC,0.06
6,UACGUAGGUGGUUUUCCCCUGAUGGAGCUAAGGGGGCCUGGAAGUUUGGACUGGGCAGAGCUCAACACUGCGUGGCAAAGUGGCUGUGGCUAGACUGCCUCUCUGGAUUCCUCGUCACUCAGCAGGGCAUCUCUGAGAGAAAUGCC,0.05
7,UACGUAGGUGGUUUUCCCCUGAUAGUGCUAGGGGGGCCUGGAAGUUUGGACUGGGCAGAGCUCAGCACAGCGUGGCAAAGUGGCUGUGGCUAGACUGCCUCUCUGGAUUCCCCGUCACUCAGCAGGGCAUCUCUGAGAGAAAUGCC,0.77
8,UACGUAGGUGGUUUUCCCCUGAUAGUGCUAAGGGGGCCUGGAAGUUUGGACUGGGCGGAGCUCAACACAGCGUGGCAAAGUGGCUGUGGCUAGACUGCCUCUCUGGAUUCCUCGUCACUCAGCUGGGCAUCUCUGAGAGAGAUGCC,0.76
9,UACGUAGGUGGUUUUCCCCUGAUAGUGCUAAGGGGGCCAGGAAGUUUGGACUGGGCAGAGCUCAACACAGCGUGGCAAAGUGGCUGUGGCUAGACUGCCUCUCUGGAUUCCUCGACACUCAGCAGGGCAUCUCUGAGAGGAAUGCC,0.72
10,UACGUAGGUGGUUUUCCCCUGAUAGUGCUAAGGGGGCCUGGAAGAUUGGACUGGGCAGAGCUCAACACAGCGUGGCAAAGUGGCUGUGGCUAGACUGCCUCUCCGGAUUCCUCGUCACUCAGCAGGGCAACUCUGAGAGAGAUGCC,1.15
11,UACGUAGGUGGUUUUCCCCUGAUAGUGCUAAGGGGGCCUGGAAGUCUGAACAGGGCAGAGCUCAACACAGCGUGGCAAAGUGGCUGUGGCUAGACUGCCUCUCUGGAUUCCUCGUCACUCAGCAGGGCAUCUCUGAGAGAAAUGCC,0.92
12,UACGUAGGUGGUUUUCCCCUGAUAGUGCUAAGGGGGCCUGGAAGUUUGGACUGGGCAGAGCUCAACACAGCGUGGCAAAGUGGCCGUGGCUAGACUGCCCCUCUGGAUUCCUCGACACUCAGCAGGGCAUCUCUGAGAGAAAUGCC,0.15
13,UACGUAGGUGGUUUUCUCCUGAUAGUGCUAAGGGGGCCUGGAAGUUUGGACCGGGCAGAGCACAACACAGCGUGGCAAAGUGGCUGUGGCUAGACUGCCUCUCAGGAUUCCUCGUCACUCAGCAGGGCAUCUCUGAGAGAAAUGCC,0.1
14,UACGUAGGUGGUUUUCCCCUGAUAGUGCUAAGGGGGCCUGGGAGUUUGGACUGGGCAGAGCUCAACACAGCGUGGCAAAGUGGCUGUGGCUAGACUGCCUCUCCGGAUUCCUCGUCACUCAGCAGGGCAUCACUGAGAGAAAUACC,1.49
15,UACGUAGGUGGUUUUCCCCUGAUAGUGCUAAGGGGGCCUGGAAGUUUGGACUGGGCAGAGCUCAACACAGCGUGGCAAAGUGGCUGUGGCUAGACUGCCUCUCAGGAUUCCUCGCCACUCAGCAGGGCAUCUCUGGGAGAAAUGCC,0
16,UACGUAGGUGGUUUUCCCCUGAUAGUGCUAAGGGGGACUGGAAGUUUAGACUGGGCAGAGCUCAACACAGCGUGGCAAAGUGGCUGUGGCUAGACUGCCUCUCUGGAUUCCUCGUCACUCAGCGGGGCAUCUCUGAGAGAAGUGCC,0.54
17,AACGUAGGUGGUUUUCCUCUGAUAGUGCUAAGGGGGCUUGGAAGUUUGGACUGGGCAGAGCUCAACACAGCGUGGCAAAGCGGCUGUGGCUAGACUGCCUCUCUGGAUUCCUCGUCACUCAGCAGGGCAUCUCUGAGAGAAAUGCC,1.27
18,UACGUAGGUGGUUUUCCCCUGAUAGUGCUAAGGGGGACUGGAAGUUUGGACUGGGCAGAGCUCAACACAGCGUGGCAAAGUGGCUGUGGCUAGACUGCCUCUCCGGAUUCCUCGUCCCUCAGCAGGGCAUCUCUGAGAGAAAUGCC,1.05
19,UACGUAGGUGGUUUUCCCCUGAUAGUGCUAAGGGGGCCUGGAAGUUAGGACUGGGCAGAGCUCAACACAGCGUGGCAAAGUGGCUGUGGCUAGACUGCCUCUCCGGAUUCCUCGUCGCUCAGCAGGGCAUCUCUGAGAGAAAUGCC,0.88
20,UACGUAGGUGGUUAUCCCCUGAUAGUGCUAAGGGGGCCUGGAAGUUUGGACUGGGCAGAGCUCAACACAGCGGGGCAAAGUGGCUGUGGCUAGACUGCCUCUCUGGAUUCCUCGUCACUCAGCAGGGCACCUCUGAGGGAAAUGCC,1.65

row,Variant,self-cleavage
1,UACGAAGGUGGUUUUCCCCUGAUAGUGCUAAGGGGGCCAGGAAGUUUGGACUGGGCAGAGCUCAACACAGCGUGGCAAAGGGGCUGUGGCUAGGCUGCCUCUCUGGAUUCCUCGUCACUCAGCAGGGCAUCUCUGAGAGAAAUGCC,0.51
2,UACGUAGGUGGUUUUCCCCUGAUAGUGCUAAGGUGGCCUGGAAGUUUGGACAGGGCAGAGCUCAACACAGCGUGGCAAAGUGGCUGUUGCUGGACUGCCUCUCUGGAUUCCUUGUCACUCAGCAGGGCAUCUCUGAGAGAAAUGCC,0.07
3,UACGUAGGUGGUUUUCCCCUGAUAGUGCUAAGGGGGCCUGGAAGUUCGGACUGGGCAGAGCUCAACACAGCGUGGCAAAGUGGCUGUGGCUAGACUGCCUCCCUGGACUCCUCGUCACUCAGCAGGGCUUCUCUGAGAGAAAUGCC,0.51
4,UACGUAGGUGGUUUCCCCCUGAUAGUGCUAAGGGGGCCUGGAAGUUUGGACUGGGCAGAGCUCAACACAGCGUGGCAAAGUGGCUGUGGCUAGACUGCCUCUCUGGAUCCCUCGUCACUCAGCAGGGCAUCUCUGAGAGUAAUGCC,1.36
5,UACGUAGGUGGCCUUCCCCUGAUAGUGCUAAGGGGGCCAGGAAGUUUGGACUGGGCAGAGCUCAACGCAGCGUGGCAAAGUGGCUGUAGCUAGACUGCCCCUCUGGAUUCCUCGUCACUCAGCAGGGCAUCUCUGAGAGAAGUGCC,0
6,UACGUAGGUGGUUUUCCCCUGAUAGUGCUAAGGGGGCCUGGGAGUUUGGACUGGGCAGAGCUCAACACAGCGUGGCAAAGUGGCUGUGGCUAGACUGCCUCUCUGAAUUCCUCGUCACUCGGCAGGGCAUCUCUGAGAGAAAUGCC,1.41
7,UACGCAGGUGGUUUUCCCCUGAUAGUGCUAAGGGGGCCUGGAAGUUUGGACUGGGCAGAGCUCAACACAGCGCGGCAAAGUGGCCGUGGCUAGACUGCCUCUCUGGAUUCCUCGUCACUCAACAGGGCAUCUCUGAGAGAAAUGCC,0.17
8,UGCGUAGGUGGUUUUCCCCUGAUAGUGCUAAGGGGGCCUGGAAGUUUGGACUGGGCAGAGCUCAACACAGCGUGGCAAAGUGGCUGUGGCUAGACUGCCUCUCUGGAUUCCUCGCCACUCUGCAGGGCAUCUCUGAGAGAAAUGCC,0.32
9,UACGUAGGUGGUUUUCCCCUGUUAGUGCGAAGGGGGCCUGGAAGUUUGGACUGGGCAGAGCUCAACACAGCGUGGCAAAGUGGCUGUGGCUAGACUGCCCCUCUGGAUUCCUCGUCACUCAGCAGGGCAUCUCUGAGAGAAAUGCC,1.73
10,UACGUAGGUGGUUUUCCCUUGAUAGUGCUAAGGGGGCCUGGAAGUUUGGGCUGGGCAGAGCUCAACACAGCGUGGCAAAGUGGCUGUGGCUAGACUGCCUCCCUGGAUUCCUCGUCACUCAGCAGGGCAUCUCUGAGAGAAAUGCC,1.15
11,UACGUAGGUGGUUUUCCCCCGAUAGCGCUAAGGGGGCCUGGAAGUUUGGGCUGGGCAGAGCUCAACACAGCGUGGCCAAGUGGCUGUGGCUAGACUGCCUCUCUGGAUUCCUCGUCACUCAGCAGGGCAUCUCUGAGAGAAAUGCC,2.3
12,UACGUAGGUGGUUUUCCCCUGAUAGUGCUAAGGGGGCCUGGAAGUUUGGACUGGGCAGAGCUCAACACAGCGUGGCAAAGUGGCUGUGACUAGACCGCCUCUCUGGAUUCCUCGUCACUCAUCAGGGCAUCUCUGAGAGAAGUGCC,0.08
13,UACGUAGGUGGUCUUCCCCUGAUAGUGCUAAGGGGGCCUGGAAGUUUGGACUGGGCUGAGCUCAACACAGCGUGGCAAAGUGGCUGUGGCUAGGCUGCCUCUCUGGAUUCCUCGUCAGUCAGCAGGGCAUCUCUGAGAGAAAUGCC,0
14,UACGUAGGUGGUUUUCCCCUGAUAGUGCUAAGGGGGCCUGGAAGUUUGGACCGGGCAGAGCUCAACACAGCGUGGCAAAGUGGUUGUGGCUAGACUGCCUCUCUGGAUUCCUCGACACUCAGCAGGGCAUCUCUGGGAGAAAUGCC,0.22
15,UACGUAGGUGGUUUUCCCCUGAUUGUGCUAAGGGGGCCUGGAAGUUUGGACUGGGCUGAGCUCAACACAGCGUGGCGAAGUGGCUGUGGCUAGACUGCCUCUCUAGAUUCCUCGUCACUCAGCAGGGCAUCCCUGAGAGAAAUGCC,0.29
16,UACGUAGAUGGUUUUCCCCUGAUAGUGCUAAGGGGGCCUGGAAGUUUGGACUGGGCAGAGCUCAACACAGCGUGGCAAAGUGGCCGUGGCUAGACUGCCUCUCUGGAUUCCUCGUCACUCAGCAGGGCAUCUCUGGGAGAAAUGCC,0.5
17,UACGUAGGUGGUUUUCCCCUGAUAGUGCUAAGGGGGCCUGGAAGUUUGGACUGAGUAGUGCUCAACACAGCGUGGCAAAGUGGCUGUGGCUAGACUGCUUCCCUGGAUUCCUCGUCACUCAGCAGGGCAUCUCUGAGAGAAAUGCC,0.04
18,UACGUAGGUGGUUUUCCCCUGAUAGUGCUAGGGGGGCCUGGAAGUCUGGACUGGGCAGAGCUCAACUCAGCGUGGCAAAGUGGCUGUGGCUAGACUGCCUCUCUGGAUUCCUCGUCACUCAGCAGGGCAUCUCUGAGAGAAAUGCC,0.54
19,UACGUAGGUGGUUUUCCCCUAAUAGUGCUAAGGGGGCCUGGAAGUUUGGACUGGGCAGAGCUCGACACAGCGUGGCAAAGUGGCUGUGGCUAGACUGCCUCUCUGGAUUCCUCGUCACUCAGCAGGGCAUCUCUGAGGGAAAUGCC,0.2
